We go through 44 molecules from paper PMC4336329 (PLoS ONE, 2015).

Each structure is given as a SMILES string. In all, about 310,000 compounds went through this assay and about 14,000 (4.5%) showed an effect of 50% or more. Effects have a minus sign here. Some of the results follow.
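Also: peak tail current of the secondary pulse compared with the same well before compound.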

For this assay, the target named is human ether-à-go-go-related gene (hERG) potassium channel (human, UniProt Q12809). The experiment in a line: primary screen, population patch clamp on CHO cells stably expressing hERG.
Sequence of human ether-à-go-go-related gene (hERG) potassium channel (Q12809 whole entry, looked up): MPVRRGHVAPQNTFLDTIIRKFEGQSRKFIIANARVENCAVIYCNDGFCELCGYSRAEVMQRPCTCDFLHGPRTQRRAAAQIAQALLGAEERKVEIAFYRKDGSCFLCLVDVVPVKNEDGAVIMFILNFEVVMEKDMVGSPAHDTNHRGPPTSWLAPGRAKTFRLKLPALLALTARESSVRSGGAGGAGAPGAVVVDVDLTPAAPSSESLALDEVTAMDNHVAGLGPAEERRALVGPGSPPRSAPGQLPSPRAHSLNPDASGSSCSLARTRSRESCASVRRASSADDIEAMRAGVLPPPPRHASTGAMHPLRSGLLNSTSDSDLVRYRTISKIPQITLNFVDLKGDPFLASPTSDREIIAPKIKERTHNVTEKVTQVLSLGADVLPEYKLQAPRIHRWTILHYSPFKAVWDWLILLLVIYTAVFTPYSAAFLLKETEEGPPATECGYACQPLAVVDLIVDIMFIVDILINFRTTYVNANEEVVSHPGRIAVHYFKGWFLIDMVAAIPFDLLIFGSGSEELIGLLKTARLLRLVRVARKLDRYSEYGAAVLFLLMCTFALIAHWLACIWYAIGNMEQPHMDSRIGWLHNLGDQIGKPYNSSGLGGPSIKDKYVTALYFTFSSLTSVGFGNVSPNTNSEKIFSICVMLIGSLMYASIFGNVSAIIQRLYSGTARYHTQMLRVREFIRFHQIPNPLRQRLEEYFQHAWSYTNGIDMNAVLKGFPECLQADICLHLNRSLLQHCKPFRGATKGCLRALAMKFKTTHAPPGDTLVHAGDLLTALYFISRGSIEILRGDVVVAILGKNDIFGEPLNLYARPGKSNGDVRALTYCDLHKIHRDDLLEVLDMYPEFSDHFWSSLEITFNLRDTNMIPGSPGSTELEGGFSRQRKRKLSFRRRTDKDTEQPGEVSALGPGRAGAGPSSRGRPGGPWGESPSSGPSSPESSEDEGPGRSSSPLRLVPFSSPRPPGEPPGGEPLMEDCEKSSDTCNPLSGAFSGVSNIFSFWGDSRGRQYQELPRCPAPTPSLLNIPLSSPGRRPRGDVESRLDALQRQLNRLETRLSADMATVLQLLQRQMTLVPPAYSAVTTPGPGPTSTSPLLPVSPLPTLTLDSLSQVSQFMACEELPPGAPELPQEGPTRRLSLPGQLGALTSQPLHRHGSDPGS
Take `COc1ccccc1-c1nn2c(C(F)(F)F)nnc2s1`: the “hERG current change (%, negative = inhibition) at 10uM” value came to 14.8%. As for `COCOc1cc(O)c2c(=O)c(OCOC)c(-c3ccc(OCOC)c(OCOC)c3)oc2c1`, the “hERG current change (%, negative = inhibition) at 10uM” value is listed as -25.3%. The same measure for `COc1ccc(OC)c(NC(=O)CCCNC(=O)c2ccc(Cl)cc2)c1`: -9.27%; for `COC(=O)c1sc(NC(=O)CSc2nncs2)c(C(=O)OC)c1C`: 10.7%; for `Cc1noc(C)c1CSc1nc2[nH]ncc2c(=O)n1-c1ccccc1`: -20.8%. The same measure for `COc1ccc(OCCNc2c([N+](=O)[O-])c(=O)oc3ccccc23)cc1`: -12.2%. Under `O=C1CS(=O)(=O)N(Cc2cccc(F)c2)c2ccc(Br)cc21` stands -5.02%; under `CCOc1ccc(N(CC(=O)NCc2ccc(F)cc2)S(=O)(=O)c2c(C)noc2C)cc1`, -4.62%.

Consider `Cc1cc(/C=C(\C#N)C(=O)NCc2ccco2)c(C)n1-c1cccnc1`, for which the “hERG current change (%, negative = inhibition) at 10uM” value is listed as -23.2%. Under `Cc1cccc(C2N(c3ccc(F)cc3)C(=O)C3CCCN32)c1` (centres unmarked) stands -12.3%. `COc1ccc(Cl)c2c1[nH]c1nc(SCc3ccccn3)nnc12`: the “hERG current change (%, negative = inhibition) at 10uM” value came out at 21.8%. The same measure for `Cc1ccc(NC2=CC(=O)C(=O)c3ccccc32)cc1`: -5.46%; for `CCCN1CCC(=O)N([C@H](CSc2ccccc2)CC(C)C)CC1`: -66.4%; for `Cc1ccc([N+](=O)[O-])cc1N=Cc1ccc(Br)s1`: -9.5%.

For the molecule `Cc1nc(S(=O)(=O)c2ccc(Cl)cc2Cl)nc2c1CCC2`, the “hERG current change (%, negative = inhibition) at 10uM” value is 3.48%. The same measure for `CCCCOC(=O)c1ccc(NC(=O)c2c(OC)cccc2OC)cc1`: 3.8%; for `Nc1nonc1-n1nnc(C(=O)N/N=C/c2ccco2)c1CSc1ccccc1`: 14%; for `COc1cc(C(=O)NCc2nnc(SCC(=O)Nc3ccc4c(c3)OCO4)o2)cc(OC)c1OC`: 29.5%. The same measure for `c1ccc(NC2=NCCN2CC2CCCCCC2)cc1`: -11.1%; for `COc1ccc2nc(C)[nH]c(=O)c2c1`: 9.19%. Under `Cc1ccc(OCc2nc(-c3cccnc3)no2)cc1C` stands 4.82%; under `CC(C)CC(=O)NC1(C(F)(F)F)C(=O)N(Cc2ccccc2)C2=C1C(=O)CC(C)(C)C2` (centres unmarked), -6.75%. Turning to `COc1ccc(OC)c(S(=O)(=O)N2CCC3(CC2)OCCN3S(=O)(=O)c2cccs2)c1`, the “hERG current change (%, negative = inhibition) at 10uM” value is listed as -42.8%. Consider `N#Cc1c(NC(=O)c2ccc(N3CCOCC3)c([N+](=O)[O-])c2)sc2c1CCCC2`, for which the “hERG current change (%, negative = inhibition) at 10uM” value was 2.29%. Under `CN1CCN(C(=O)CCS(=O)(=O)c2cc3c(cc2Cl)NC(=O)CO3)CC1` stands 9.8%; under `CC(=O)Nc1ccccc1/C=C/c1ccc2c(C)cc(C)c(O)c2n1`, 16.8%; under `Cn1cccc1C(C#N)c1ncc(C(F)(F)F)cc1Cl` (centres unmarked), -2.06%.

Take `CCc1ccc(CNC(=O)CCS(=O)(=O)Cc2ccccc2F)cc1`: the “hERG current change (%, negative = inhibition) at 10uM” value was 10.8%. As for `O=C(Nc1ccc(F)cc1)c1oc2ccccc2c1NC(=O)C1CC1`, the “hERG current change (%, negative = inhibition) at 10uM” value is listed as -1.77%. Under `COc1ccc(OC)c(-n2c(O)c(/C=C3\C=Nc4ccccc43)c(=O)[nH]c2=O)c1` stands 7.03%.

Regarding `CCCC(=O)Nc1ccc(C(=O)Nc2nnc(COCC)s2)cc1`, the “hERG current change (%, negative = inhibition) at 10uM” value is recorded as 16.8%. The same measure for `O=C(Nc1ccc(O)cc1)c1cc2n(n1)C(C(F)(F)F)CC(c1ccco1)N2` (centres unmarked): -5.45%.

`Cc1nnc(NC(=O)CSc2nnc(Cc3cccn3C)n2CCc2ccccc2)s1`: the “hERG current change (%, negative = inhibition) at 10uM” value is -13.5%. The same measure for `CCOC(=O)C1CCCN(C(=O)c2cc(-c3ccc(C)cc3)on2)C1` (centres unmarked): -44.6%. `COc1ccccc1OCCSc1nc2ccccc2n1CCC(=O)O`: the “hERG current change (%, negative = inhibition) at 10uM” value came out at 13.2%. Consider `COc1ccc([N+](=O)[O-])cc1N(CC(=O)NCCSc1ccc(C)cc1)S(C)(=O)=O`, for which the “hERG current change (%, negative = inhibition) at 10uM” value was -25.3%.

Consider `COc1ccc(NC(=O)CN(C)CC(=O)Nc2ccc(Cl)c(S(=O)(=O)N(C)C)c2)cc1`, for which the “hERG current change (%, negative = inhibition) at 10uM” value is -20.7%. The same measure for `CC1CCCN(C(=O)C2CCN(S(=O)(=O)c3cccc4nonc34)CC2)C1` (centres unmarked): 3.61%.

With `Cc1nc(SCc2nc3ccccc3[nH]2)c2oc3ccccc3c2n1`, the “hERG current change (%, negative = inhibition) at 10uM” value is 1.04%. The same measure for `CC(=O)c1cc(-c2ccc(F)cc2)n(CC(=O)NCc2cccs2)c1C`: -5.31%; for `O=C(Cc1ccccc1Cl)NCc1cccnc1`: 19.3%. The same measure for `Cc1nn(CC(=O)N2CCCCC2)c(=O)c2nn(-c3ccccc3)c(C)c12`: 19.2%; for `CC1CN(S(=O)(=O)c2ccc(C(=O)Nc3nnc(-c4ccc5c(c4)CCCC5)o3)cc2)CC(C)O1` (centres unmarked): 0.158%; for `Nc1cc(C(F)(F)F)ccc1C(=O)O`: 0.434%.
